The other results are listed elsewhere or left out. At the low end of the ranking, values are background and their order means little. The protein was read in a cell extract, so binding may be indirect.

This assay addresses T1, HNF4alpha8 (COS-7 nuclear extract) (UniProt P41235-5).
T1 sequence: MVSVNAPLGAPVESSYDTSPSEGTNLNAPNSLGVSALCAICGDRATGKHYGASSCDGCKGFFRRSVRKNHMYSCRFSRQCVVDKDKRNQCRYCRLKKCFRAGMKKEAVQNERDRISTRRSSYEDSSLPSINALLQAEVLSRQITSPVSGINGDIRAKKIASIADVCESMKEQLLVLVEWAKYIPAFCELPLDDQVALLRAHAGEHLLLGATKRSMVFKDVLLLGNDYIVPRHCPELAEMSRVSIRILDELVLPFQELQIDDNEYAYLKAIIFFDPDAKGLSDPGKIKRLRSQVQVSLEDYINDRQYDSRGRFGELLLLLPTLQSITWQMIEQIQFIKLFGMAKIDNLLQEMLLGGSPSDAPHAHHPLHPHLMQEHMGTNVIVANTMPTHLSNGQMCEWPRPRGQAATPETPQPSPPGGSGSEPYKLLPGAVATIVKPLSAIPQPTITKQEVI
Briefly: protein-binding microarray. Conditions: COS-7 nuclear extract on double-stranded Agilent 4x180k PBM; binding buffer, salt, pH and temperature not given; high values mean tight binding; double strand, one strand shown; sequences stand for … in …GCCTAGGGAGATTAGAGTATCGGTCGA
TTGGGGCTGATGTGCACAGTCCACAGAAAC: the binding signal (log2 normalized intensity) came out at 0.33.

Consider GACTCGAATGCGAACCTGTCTCCAGAGGAC, for which the binding signal (log2 normalized intensity) was -1.45.

Consider TAGTTAGGGCCTTGCAGGGGGCCTCCTGCC, for which the binding signal (log2 normalized intensity) is -1.18.

CATTCTTTCCAGCTTTGATAGTCTGCTACC: the binding signal (log2 normalized intensity) came out at 1.21.

On to TTCCCCATATTCGTCCAGTTACTGAAAGGG, for which the binding signal (log2 normalized intensity) turned out to be 0.831.

Regarding GGCATCTAACCTTCGTCCTTGCCCCTGGCT, the binding signal (log2 normalized intensity) turned out to be 2.95.

For AGTCAATCCCGTGGACTTTGCCTGCCCATC, the binding signal (log2 normalized intensity) came out at 5.08.

With GCAACTGGTGAGCAGGTTAATTATAATCGC, the binding signal (log2 normalized intensity) was 0.111.

For the sequence GAGAACAGGTTCATTCTTTAAGTGTGGGGT, the binding signal (log2 normalized intensity) is 1.39.

For the sequence TACATTTGACTGAGGTGCAGGACAAAGTGT, the binding signal (log2 normalized intensity) is 0.876.

Take CCTGTGACCAAGAATGCCTAACCTCCTAGG: the binding signal (log2 normalized intensity) was -1.36.

With AACCATCTGGCTTGGCCCCCGGACCCAAAG, the binding signal (log2 normalized intensity) worked out at 4.32.

On to AAAGCCCATTAAATCTTCCCTCCTGTGAAC, for which the binding signal (log2 normalized intensity) was found to be 0.689.

GCATGACTACATTCTTTGAAGACTAGGCTC: the binding signal (log2 normalized intensity) was -1.29.

As to ACAAAGCCTGGGGTTTGGCTCCAAGGCTGA, the binding signal (log2 normalized intensity) is -1.28.

For the sequence CCACTGAGACGGGCTGAGGATGAGGACTTT, the binding signal (log2 normalized intensity) was found to be 3.17.

With TCTGATACATTGGACAACTGTACTTTGGAC, the binding signal (log2 normalized intensity) is 8.02.

With GATAAGGCGTCTTATCAGCCCCCATGTCAG, the binding signal (log2 normalized intensity) was found to be 3.45.

Take CCTCCCAGGGACACATGCCCCTTCCCTCCC: the binding signal (log2 normalized intensity) turned out to be 4.28.

On to GGCCAGGGAGTACACCCCTCACTCCCTCCA, for which the binding signal (log2 normalized intensity) turned out to be 1.96.

For the sequence TCCAACCCTCCGTTTCTCTGGGCCTGATAG, the binding signal (log2 normalized intensity) is -1.24.

In the case of CTGAGCCCGCTCCACTCCGGGCGATCCGGG, the binding signal (log2 normalized intensity) was -1.39.

For AGAATGGAATTCCAGAGAGACTCACTGCAA, the binding signal (log2 normalized intensity) is -1.37.

As for TCTTGAAATCCCAAGCAGTGATATTCTCTC, the binding signal (log2 normalized intensity) was -1.28.

Regarding ACCTTCTCCCACTTCCCTGCCTTTGTATAA, the binding signal (log2 normalized intensity) came to 1.57.

With GGGGCTTTTGTTTAGGAAGAGATCAAAGTT, the binding signal (log2 normalized intensity) amounted to 1.19.

Turning to AGAACAAACAAATTTAGCAAGACTGCAAAA, the binding signal (log2 normalized intensity) was -1.24.

GAGTGACCTCTGGTCATTCAATGTTTGGGA: the binding signal (log2 normalized intensity) was 2.66.

TTGTCCTCTGATTCTCCAGTCCGAAGGTCC: the binding signal (log2 normalized intensity) came out at 3.43.

For the sequence AAAGGCACTTTGATAACTGGGTAAATGTAC, the binding signal (log2 normalized intensity) was 1.15.

For GAAGGCCTCTGATGATTCTAAAGGCACAAT, the binding signal (log2 normalized intensity) is -1.18.

CGAGCACGTCGAGCAGGCCCCGTCCCCGCC: the binding signal (log2 normalized intensity) was 4.5.

AGCTGCTTCAGGAGCCCCCTGGGGGAGGTT: the binding signal (log2 normalized intensity) is -1.05.

AGTCCAAATTCCTAGCCCTCTTTCAAAGAC: the binding signal (log2 normalized intensity) was -1.22.

In the case of GAGACCTCTGCAGGAGGACTGGATCAATGG, the binding signal (log2 normalized intensity) was -1.03.

As to TGCACATGCCCCTCCCAGGGACACATGCCC, the binding signal (log2 normalized intensity) was 4.

With TACGTTTGTGATACACCTTGCCTGGCTACC, the binding signal (log2 normalized intensity) is -0.733.

Regarding GAACAGGTCAAAGGTCAGTTTCTTTAAGAC, the binding signal (log2 normalized intensity) was 7.63.

As to TGTGACAGAAGTCATGTCTCATTGCCCCTT, the binding signal (log2 normalized intensity) was 4.58.

Regarding GGCTTGATCCCTGAACTTTGCTCCCACCCT, the binding signal (log2 normalized intensity) was determined as 6.25.

With TCAGACCTGACCTTTGGATTCCCAGATGGA, the binding signal (log2 normalized intensity) turned out to be 5.76.

As to TCCCATCTGTGCTCATTATTATCAGCAAGA, the binding signal (log2 normalized intensity) was -1.02.

As for GGCCTGATAGATTTTGCATTGCTCACATAG, the binding signal (log2 normalized intensity) is -0.853.

Consider GGAAGGTATTGTCATTATTCCAGCTTTACA, for which the binding signal (log2 normalized intensity) is -1.04.

Regarding TTGCTTAAACCTAGCTACTAGCCATTTCGG, the binding signal (log2 normalized intensity) is -1.42.

In the case of AGTTTTGTTATCTCTGCTTGCAATTTTTGT, the binding signal (log2 normalized intensity) stood at 1.15.

For the sequence ATGTGGTATTAACATGTAAATATGACCTTT, the binding signal (log2 normalized intensity) was 8.01.

Consider GCCTGCAGGTGAATGGAAACAAGAGAGTCT, for which the binding signal (log2 normalized intensity) is -1.34.

With CCATCCTTGTTTTGGGGGTTGGTATTACAA, the binding signal (log2 normalized intensity) was 1.53.

For the sequence CGCAGTCGCCTGCAAGACAATACCTTCACT, the binding signal (log2 normalized intensity) is -1.29.

Turning to GGGATGGACTTTGGCCCTCAGCCCAATGTG, the binding signal (log2 normalized intensity) stood at 7.1.

Turning to TAGTAAAGCTCATGAAGCTTCCCCTTTAAC, the binding signal (log2 normalized intensity) was -0.601.

For GGGCACCTCTGAAAGCACTTGTAGGCCTGT, the binding signal (log2 normalized intensity) was -1.28.

Turning to AAAGAGGCTACCAGACCTTGGCCTGCTCCT, the binding signal (log2 normalized intensity) is -1.32.

With GGTTAAAAGTTCTGCTGAGTATCCAAAGGT, the binding signal (log2 normalized intensity) was 1.58.

Turning to CAGAAAGTTAGGTTCTGGCACCTGAAGCTG, the binding signal (log2 normalized intensity) is -1.19.

Consider ACTGCTCCAGTGGACATTGGCCCTTTGACC, for which the binding signal (log2 normalized intensity) stood at 6.76.

In the case of TTGGTCTCATGGGCCTAAACATTCCCCTTT, the binding signal (log2 normalized intensity) was determined as 2.25.

Take CCTTTGGTCTAAACCTACTTAGATCAAGAT: the binding signal (log2 normalized intensity) came out at 0.214.

Regarding CTGTAGTAAGGGAGTGTGGGGTGGTGTCAG, the binding signal (log2 normalized intensity) was 0.31.

GTTGCAGTGAGCTAAGATTGGACTCTGCAC: the binding signal (log2 normalized intensity) worked out at 6.55.

Consider ACCAGAGCCGTCTGGTAAATTTCTAACACT, for which the binding signal (log2 normalized intensity) was -1.48.

As to TTTGGACTTTGGACTTGGGACTTTCGAGTT, the binding signal (log2 normalized intensity) turned out to be 8.22.

As to TCCATTTCCCACATTGCTCTCCCATAAGAA, the binding signal (log2 normalized intensity) is -0.979.

For TGGAAATTCAGAACTTTGACCACCTACTGT, the binding signal (log2 normalized intensity) was 3.02.

TACAATTCCAGCAAGGATGGGGGCAAAGGT: the binding signal (log2 normalized intensity) is 3.95.

With GAATGAGTTTCCAGAATTGCTTTACGAAGT, the binding signal (log2 normalized intensity) is -1.23.

As for CTGGCCTCGGGGAGCTGTGGGCCTCACACC, the binding signal (log2 normalized intensity) is -1.27.

With CTGAAAGCTTCAAAGGACAGGCTGACTATC, the binding signal (log2 normalized intensity) was -1.27.

Consider GAAGATAAGCAGATCTTTAGAGACAGAAAA, for which the binding signal (log2 normalized intensity) is -1.32.

On to AAACGGGTTTTACCCTGGGAATGGAGAGAG, for which the binding signal (log2 normalized intensity) is -1.15.

In the case of AAGCAGTAGACTAAAACCCATATCTGACTG, the binding signal (log2 normalized intensity) was -1.3.

Values taken from paper PMC10726135.
